In all, about 420,000 compounds went through this assay and about 50,000 (12%) were called active. This list was built around the results that the source calls inconclusive (neither active nor inactive); the mix of calls is not that of the screen. Calls come from the whole dose curve; as a rule, active = well fitted inhibition curve with a large enough effect; inconclusive = small, poorly fitted or top-dose-only effect; inactive = flat fitted curve, though single readings scatter. No potency is given beside an inconclusive call; the fits are too rough.
Test: qHTS for Inhibitors of human tyrosyl-DNA phosphodiesterase 1 (TDP1): qHTS in cells in presence of CPT; note: nearly all actives have a fitted effect of over 55% in size
Details: chicken DT40 Tdp1-/-;hTDP1 cells + 20 nM CPT, ATP luminescence, 48 h; series mostly up to 46.2 µM
Outline: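 Cell growth measured by CellTiter-Glo luminescence after a minimum 48 h, 37 C compound exposure with 20 nM CPT in Tdp1-knockout DT40 cells stably expressing hTDP1, seeded 400/well; qHTS titration format.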
Potency is the fitted concentration of half-maximal effect; tags give direction and shape of the fitted curve.

**Q.** With `COc1cc(NC(=O)CCN2CCN(C/C=C/c3ccccc3)CC2)cc(OC)c1` as the compound, how does the Potency read?
**A.** inconclusive [inhibitor, single point]

**Q.** Which Potency does the source give for `Cc1nnc(NC(=O)CCS(=O)(=O)Cc2ccccc2)s1` here?
**A.** active: 10.3 µM

**Q.** Which Potency does the source give for `C#CC[N+]1(CC#Cc2ccc(C)cc2)CCCCC1` here?
**A.** active: 2.31 µM

**Q.** With `O=C(c1ccc(S(=O)(=O)N2CCOCC2)cc1)N1CCN(c2cccc(Cl)c2)CC1` as the compound, how does the Potency read?
**A.** inconclusive [inhibitor, single point]

**Q.** Which Potency does the source give for `O=C(NCCC(=O)N1CCc2ccccc21)c1ccco1` here?
**A.** inactive

**Q.** For `CCCCCn1c(CNC(=O)CCC)nc2ccccc21`, which Potency is on record?
**A.** inconclusive [inhibitor, single point]

**Q.** For `CCCNC(=O)C(=O)NCC(c1ccc2c(c1)OCO2)N1CCOCC1` (configuration not stated), which Potency is on record?
**A.** inactive

**Q.** For `COc1ccc(OCc2ccc(-c3nc(C#N)c(N4CCC(C)CC4)o3)o2)cc1`, which Potency is on record?
**A.** inconclusive [inhibitor, single point]

**Q.** With `COc1cc(NC(=O)CSc2nc3[nH]ncc3c(=O)n2-c2ccc(Cl)cc2)cc(OC)c1` as the compound, how does the Potency read?
**A.** inconclusive [inhibitor, single point]

**Q.** With `NC(=O)Cn1nnc(-c2ccccc2NC(=O)c2cnccn2)n1` as the compound, how does the Potency read?
**A.** inconclusive [inhibitor, single point]

**Q.** With `CCc1noc(C)c1C(=O)N1CCN(S(=O)(=O)c2ccc(Br)cc2Cl)CC1` as the compound, how does the Potency read?
**A.** inconclusive [inhibitor, partial curve, poor fit]

**Q.** For `NCCNc1cc(N2CCCC2)ccc1[N+](=O)[O-]`, which Potency is on record?
**A.** active: 23.1 µM

**Q.** For `S=C1NC[C@H](Cc2ccccc2)N1CCCCC1CCCCC1`, which Potency is on record?
**A.** inconclusive [inhibitor, single point]

**Q.** For `C=CCNC(=S)NNC(=O)c1ccc(Br)cc1`, which Potency is on record?
**A.** inconclusive [inhibitor, single point]

**Q.** For `C=C(C)Cn1c(SCC(=O)Nc2cc(C)ccc2C)nc2sc3c(c2c1=O)CCCC3`, which Potency is on record?
**A.** inconclusive [inhibitor, partial curve]

**Q.** For `CN(C)Cc1ccccc1-c1ccc2ncnc(NC3CCNCC3)c2c1`, which Potency is on record?
**A.** inconclusive [inhibitor, single point]

**Q.** Which Potency does the source give for `CN(c1ccc(-c2csc(NC(=O)CCCc3nc4ccccc4c(=O)[nH]3)n2)cc1)S(C)(=O)=O` here?
**A.** active: 20.6 µM

**Q.** With `CCOc1ccc(NC(=S)N(CCN2CCOCC2)Cc2cc3cc4c(cc3[nH]c2=O)OCO4)cc1` as the compound, how does the Potency read?
**A.** inconclusive [inhibitor, single point]

**Q.** For `COc1ccc(CNC(=S)Nc2ccc(S(N)(=O)=O)cc2)cc1`, which Potency is on record?
**A.** inconclusive [inhibitor, single point]

**Q.** Which Potency does the source give for `CN(C)C=Nc1ncc2c([nH]c3ccccc32)c1C#N` here?
**A.** inconclusive [inhibitor, partial curve]

**Q.** With `CC/C(=N\NC(=O)c1csc(C)c1C)c1cccs1` as the compound, how does the Potency read?
**A.** inactive

**Q.** Which Potency does the source give for `COc1cc(OC)cc(C(=O)N2CCC(C(=O)NCCc3ccccc3)CC2)c1` here?
**A.** active: 7.31 µM

**Q.** Which Potency does the source give for `O=C(c1ccc(F)cc1)C1CCN(C(=O)c2c(F)cccc2F)CC1` here?
**A.** inactive

**Q.** For `Cn1nc(C(C)(C)C)cc1C(=O)N1CCCCC1c1cc(C(=O)Nc2cccc(C#N)c2)no1` (configuration not stated), which Potency is on record?
**A.** active: 20.6 µM

**Q.** For `Cc1cccc2[nH]c(-c3ccc(NC(=O)c4ccco4)cc3)nc12`, which Potency is on record?
**A.** inconclusive [inhibitor, single point]

**Q.** For `CCC(=O)N1CCc2cc(Br)cc(S(=O)(=O)CCC(=O)N3CCN(c4ccccc4OC)CC3)c21`, which Potency is on record?
**A.** inconclusive [inhibitor, single point]

**Q.** Which Potency does the source give for `COc1cccc(/C=N/Nc2nn3cnnc3c3ccccc23)c1O` here?
**A.** active: 2.59 µM

**Q.** For `COc1ccccc1C(=O)Nc1c2c(nn1-c1cccc(C)c1C)CS(=O)(=O)C2`, which Potency is on record?
**A.** inconclusive [inhibitor, single point]

**Q.** Which Potency does the source give for `COC(=O)c1sc2ncn(CC(=O)N(C)C3CCCCC3)c(=O)c2c1C` here?
**A.** inactive

**Q.** For `O=C(COC(=O)CC1CC2CCC1C2)Nc1cccc(S(=O)(=O)NC2=NCCCCC2)c1` (configuration not stated), which Potency is on record?
**A.** inconclusive [inhibitor, single point]

**Q.** Which Potency does the source give for `CCC(CC)=N/N=C/c1c(O)n(CC)c2cc(C3=NNC(=O)CC3)ccc12` here?
**A.** inconclusive [inhibitor, partial curve]

**Q.** With `CCCn1c(=O)c(C(=O)Nc2cccc(C)c2)c(O)c2ccccc21` as the compound, how does the Potency read?
**A.** inconclusive [inhibitor, single point]

**Q.** For `O=C1NC(Cc2ccccc2)c2nc3cc(F)ccc3c(=O)n2-c2ncccc21` (configuration not stated), which Potency is on record?
**A.** inactive

**Q.** For `O=C(C1CCCN(Cc2ccc([N+](=O)[O-])cc2)C1)N1CCCCC1` (configuration not stated), which Potency is on record?
**A.** inactive

**Q.** For `CCN(CC)C(=O)C(=O)N/N=C/c1ccc(F)cc1`, which Potency is on record?
**A.** inactive

**Q.** With `CCCOC(=O)Oc1ccc2c(=O)c(Oc3cc(C)cc(C)c3)coc2c1` as the compound, how does the Potency read?
**A.** inconclusive [inhibitor, single point]

**Q.** Which Potency does the source give for `O=C1c2cccnc2C(=O)N1Cc1ccc(F)cc1` here?
**A.** inactive

**Q.** With `Cc1ccc(-c2csc3ncnc(Oc4ccc5c(C)cc(=O)oc5c4)c23)cc1` as the compound, how does the Potency read?
**A.** active: 18.4 µM

**Q.** For `COc1ccc(NC(=O)NNC(=O)c2ccc(-c3ccccc3)cc2)cc1`, which Potency is on record?
**A.** inconclusive [inhibitor, partial curve]

**Q.** Which Potency does the source give for `COc1ccccc1N1CCN(S(=O)(=O)c2ccc3[nH]c4c(c3c2)CCCC4)CC1` here?
**A.** inconclusive [inhibitor, single point]

**Q.** With `CC(C)(C)OC(=O)N1Cc2ccccc2C[C@H]1C(=O)NC1CCCC1` as the compound, how does the Potency read?
**A.** inactive

**Q.** With `Cn1nc(C(F)(F)F)c2cc(NC(=O)OCc3ccc(C(C)(C)C)cc3)sc21` as the compound, how does the Potency read?
**A.** inactive

**Q.** For `COc1ccc(C(=O)C(Cc2cc(C(C)=O)ccc2OC)N2CCCC2)cc1` (configuration not stated), which Potency is on record?
**A.** inconclusive [inhibitor, single point]

**Q.** With `COc1ccc2cc(CN(CCc3ccccc3)Cc3nnnn3Cc3ccco3)c(=O)[nH]c2c1` as the compound, how does the Potency read?
**A.** inconclusive [inhibitor, single point]

**Q.** Which Potency does the source give for `CCOc1cc(-c2nnc(SCC(=O)NCc3ccccc3)nc2-c2ccc(OC)c(OCC)c2)ccc1OC` here?
**A.** active: 5.8 µM

**Q.** With `CCOC(=O)c1cc(CC)sc1NC(=O)Cc1ccsc1` as the compound, how does the Potency read?
**A.** inconclusive [inhibitor, single point]

**Q.** For `Cc1ccc(NS(=O)(=O)c2c(C)[nH]c(C)c2C(=O)N2CCCCC2)cc1F`, which Potency is on record?
**A.** inconclusive [inhibitor, single point]

**Q.** Which Potency does the source give for `Cc1ccc(CNC(=O)CSc2nnc(CNC(=O)c3ccc(F)cc3)o2)cc1` here?
**A.** inactive

**Q.** Which Potency does the source give for `CCN(C(=O)CN1CCCCC1)c1c(N)n(Cc2ccccc2)c(=O)[nH]c1=O` here?
**A.** inactive

**Q.** For `COCCNC(=S)N1CCN(Cc2ccc3c(c2)OCO3)CC1`, which Potency is on record?
**A.** inactive

**Q.** For `Cc1nc(NC(=O)c2oc3ccccc3c2C)sc1C(=O)N(C)C`, which Potency is on record?
**A.** inconclusive [inhibitor, single point]

**Q.** With `Oc1c(Cl)cc(Cl)cc1/C=C/c1ccc2cccc(O)c2n1` as the compound, how does the Potency read?
**A.** inconclusive [inhibitor, single point]

**Q.** For `CC(C)c1c(O)nc(SCc2ccc(F)cc2)[nH]c1=O`, which Potency is on record?
**A.** inactive

**Q.** For `Cn1c(SCc2ccccc2)nnc1-c1ccc(O)cc1`, which Potency is on record?
**A.** inactive

**Q.** For `O=C1C(Nc2ccccc2)=C(NS(=O)(=O)c2ccccc2)C(=O)c2ccccc21`, which Potency is on record?
**A.** inactive

**Q.** With `COc1ccc(C(=O)N2CC(=O)Nc3ccc(C)cc3C2c2ccccc2)c(OC)c1` (configuration not stated) as the compound, how does the Potency read?
**A.** inconclusive [inhibitor, single point]

**Q.** For `Cc1ccc(-n2ncc(C(=O)N3CCCCC3)c2C2CCN(C(=O)OC(C)(C)C)CC2)cc1C`, which Potency is on record?
**A.** inconclusive [inhibitor, single point]

**Q.** With `c1ccc(CN2CCN(CCOCCOc3ccc4c(c3)CCC4)CC2)cc1` as the compound, how does the Potency read?
**A.** inconclusive [inhibitor, single point]

**Q.** For `O=C(CSc1nc2ccc([N+](=O)[O-])cc2[nH]1)c1ccc2ccccc2c1`, which Potency is on record?
**A.** inconclusive [inhibitor, partial curve]

**Q.** With `O=C(CSc1nnc(-c2cccnc2)s1)Nc1ccc(C(=O)O)cc1` as the compound, how does the Potency read?
**A.** inactive

**Q.** With `O=S1(=O)CC(N2CCC(Cc3ccccc3)CC2)CN1Cc1ccc(F)cc1` (configuration not stated) as the compound, how does the Potency read?
**A.** active: 25.9 µM

**Q.** For `CSc1ncccc1C(=O)Nc1cccc(S(=O)(=O)N2CCCCCC2)c1`, which Potency is on record?
**A.** inconclusive [inhibitor, single point]

**Q.** For `CCCN(CC1CC1)C(=O)COC(=O)c1[nH]c(C)c(C(=O)OCC)c1C`, which Potency is on record?
**A.** inconclusive [inhibitor, single point]

**Q.** With `CN(C)c1ccc(CNC(=O)CN2C(=O)c3cccnc3Oc3ccc(Cl)cc32)cc1` as the compound, how does the Potency read?
**A.** inconclusive [inhibitor, single point]

**Q.** With `Clc1cncc(Cl)c1N/N=C/c1ccncc1` as the compound, how does the Potency read?
**A.** inconclusive [inhibitor, single point]

**Q.** With `CC(C)CNc1ncnc2c1ncn2[C@H]1CN(C2CCCC2)C[C@@H](CO)O1` as the compound, how does the Potency read?
**A.** inactive

**Q.** Which Potency does the source give for `CCCCn1c(C)csc1=Nc1cccnc1` here?
**A.** inconclusive [inhibitor, single point]

**Q.** Which Potency does the source give for `CC#CCN(Cc1ccco1)C(=O)C1CCC(=O)N(CCc2cccc(F)c2)C1` (configuration not stated) here?
**A.** active: 20.6 µM

**Q.** For `O=C(COC(=O)c1ccc(Br)o1)NCC1CCCO1` (configuration not stated), which Potency is on record?
**A.** inconclusive [inhibitor, single point]

**Q.** With `CC(=O)Nc1ccc(SCC(=O)NC(=O)c2ccccc2Br)cc1` as the compound, how does the Potency read?
**A.** inactive

**Q.** Which Potency does the source give for `Cc1oc2ccc(O)c(CN3CCN(Cc4ccccc4)CC3)c2c1C(=O)Nc1ccccc1` here?
**A.** active: 23.1 µM

**Q.** With `COc1cc(-c2cc(C(=O)NCc3ccc(S(N)(=O)=O)cc3)c3ccccc3n2)cc(OC)c1OC` as the compound, how does the Potency read?
**A.** inconclusive [inhibitor, single point]
